Test results as given in the antibiotic and cytotoxicity screens of Wong et al. (2023).
The list shows a part of the results.

Columns and labels:
[1] = test system: HSkMC (human skeletal muscle cells); assay: cytotoxicity call (relative viability < 0.9); details: 10 µM
[2] = test system: HepG2; assay: cytotoxicity call (relative viability < 0.9); details: 10 µM
[3] = test system: S. aureus RN4220; assay: growth inhibition call (relative growth <= 0.2); details: 50 µM

Structure (SMILES) | cytotoxicity call [1] | cytotoxicity call [2] | growth inhibition call [3]
C[C@H](CO)N1C[C@H](C)[C@H](CN(C)S(=O)(=O)c2cccs2)Oc2ccc(NC(=O)CCC(F)(F)F)cc2CC1=O | inactive | inactive | inactive
C[C@H]1CCCCO[C@H](CN(C)CC2CC2)[C@@H](C)CN([C@@H](C)CO)C(=O)c2cc(NC(=O)Nc3ccc(C(F)(F)F)cc3)ccc2O1 | inactive | inactive | inactive
C[C@H]1CCCCO[C@H](CN(C)Cc2ccccc2)[C@@H](C)CN([C@@H](C)CO)C(=O)c2cc(NC(=O)NC3CCCCC3)ccc2O1 | inactive | active | inactive
C[C@@H]1CN([C@H](C)CO)C(=O)c2cccc(NC(=O)c3cnccn3)c2O[C@H]1CN(C)Cc1ccccc1 | inactive | active | inactive
Cc1ccc(S(=O)(=O)Nc2ccc3c(c2)C(=O)N([C@H](C)CO)C[C@H](C)[C@@H](CN(C)S(C)(=O)=O)OCCCC[C@H](C)O3)cc1 | inactive | inactive | inactive
C[C@H]1CN([C@@H](C)CO)C(=O)Cc2cc(NC(=O)CCN3CCOCC3)ccc2O[C@@H]1CN(C)C(=O)NC1CCCCC1 | inactive | inactive | inactive
COCC#Cc1cnc2c(c1)C(=O)N([C@@H](C)CO)C[C@@H](C)[C@@H](CN(C)C(=O)CN1CCOCC1)O2 | inactive | inactive | inactive
C[C@H](CO)N1C[C@H](C)[C@@H](CN(C)C(=O)Nc2ccc3c(c2)OCO3)Oc2c(NC(=O)Nc3cccc4ccccc34)cccc2C1=O | inactive | inactive | inactive
COc1cccc(C#Cc2ccc3c(c2)O[C@@H](CN(C)S(=O)(=O)c2ccccc2F)[C@H](C)CN([C@H](C)CO)S3(=O)=O)c1 | inactive | inactive | inactive
CCCCCCCCC(=O)O | inactive | inactive | inactive
O=C(C[C@@H]1CC=CC[C@H](NC(=O)OCC2c3ccccc3-c3ccccc32)C(=O)O[C@@H](c2ccccc2)CNC1=O)N[C@@H](CO)Cc1ccccc1 | active | inactive | inactive
Nc1ncnc2c1ncn2[C@@H]1O[C@@H]2CO[P@@](=O)(S)O[C@@H]3[C@H](O)[C@@H](CO[P@@](=O)(S)O[C@H]2[C@H]1O)O[C@H]3n1cnc2c(N)ncnc21 | inactive | inactive | inactive
CCOc1cc(C)nc(N)n1 | inactive | inactive | inactive
OC[C@@H]1CCCN1 | inactive | inactive | inactive
C[C@@H]1CCCCO[C@H](CN(C)S(=O)(=O)c2cn(C)cn2)[C@H](C)CN([C@H](C)CO)C(=O)c2cc(NC(=O)CCCN(C)C)ccc2O1 | inactive | inactive | inactive
COc1ccc(S(=O)(=O)Nc2ccc3c(c2)C(=O)N([C@H](C)CO)C[C@H](C)[C@H](CN(C)Cc2ccccc2)OCCCC[C@H](C)O3)cc1 | inactive | inactive | inactive
CO[C@@H]1CN(C)C(=O)c2cc(NC(=O)C3CC3)ccc2OC[C@@H](C)N(C(=O)Cc2ccccn2)C[C@@H]1C | inactive | inactive | inactive
C[C@H](CO)N1C[C@H](C)[C@@H](CN(C)C(=O)Nc2ccc(C(F)(F)F)cc2)Oc2ccc(NS(C)(=O)=O)cc2C1=O | inactive | inactive | inactive
Cc1cc2c(o1)CC(C)(C)CC2=O | inactive | inactive | inactive
COc1ccc(S(=O)(=O)Nc2ccc3c(c2)C(=O)N([C@H](C)CO)C[C@H](C)[C@@H](CN(C)C(=O)Nc2cccc4ccccc24)OCCCC[C@H](C)O3)cc1 | inactive | active | inactive
CO[C@@H]1CN(C)C(=O)c2ccc(NS(C)(=O)=O)cc2OC[C@@H](C)N(S(C)(=O)=O)C[C@H]1C | inactive | inactive | inactive
C[C@H](CO)N1C[C@H](C)[C@@H](CN(C)S(=O)(=O)c2cn(C)cn2)Oc2c(NC(=O)CCC(F)(F)F)cccc2C1=O | inactive | inactive | inactive
O=[N+]([O-])c1ccc(/C=C/CN(C/C=C/c2ccc([N+](=O)[O-])cc2)CCCNS(=O)(=O)c2cccc3cnccc23)cc1 | inactive | inactive | inactive
C[C@H]1CN([C@@H](C)CO)C(=O)c2cc(NS(=O)(=O)c3ccc(Cl)cc3)ccc2O[C@H]1CN(C)Cc1ccc(Cl)c(Cl)c1 | active | active | inactive
CC(C)N1C[C@H](C)[C@@H](CN(C)Cc2ccc(Oc3ccccc3)cc2)Oc2c(cccc2-c2cn(-c3ccncc3)nn2)C1=O | inactive | inactive | inactive
